Results published in paper PMC12820563, “FoxP3 forms a head-to-head dimer in vivo and stabilizes its multimerization on adjacent microsatellites”.
Some of the results follow.

Each sequence was assayed against T1, MBP-FoxP1dN (Mus musculus, UniProt P58462 326-579) (assay: PD-seq (MBP pull-down with sequencing); 20 mM Tris-HCl pH 7.5, 100 mM NaCl, 1.5 mM MgCl2, 0.4 uM protein, 0.1 uM dsDNA library, 30 min, room temperature, amylose pull-down; high values mean tight binding). Settings: protein: recombinant; tags: His6-MBP; chain copies: 2; dsDNA, one strand shown.
T1 sequence: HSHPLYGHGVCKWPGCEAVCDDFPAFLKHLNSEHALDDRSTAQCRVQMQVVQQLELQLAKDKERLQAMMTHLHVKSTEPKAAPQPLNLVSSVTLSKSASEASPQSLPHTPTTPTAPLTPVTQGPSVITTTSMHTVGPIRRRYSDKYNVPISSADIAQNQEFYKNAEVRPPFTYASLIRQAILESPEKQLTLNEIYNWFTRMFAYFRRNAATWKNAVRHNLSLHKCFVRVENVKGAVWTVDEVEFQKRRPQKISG
In short: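 Amylose resin was used to capture complexes formed during 30 min at room temperature in Tris pH 7.5 buffer with NaCl and MgCl2 between 0.4 µM His6-MBP-tagged mouse FoxP3 or FoxP1 fragment lacking the N-terminus, expressed in E. coli, and 0.1 µM Klenow-filled double-stranded degenerate DNA library. After three washes, the DNA was released with proteinase K, barcoded by PCR and sequenced on Illumina. Binding is pooled-replicate reads-per-million enrichment, pull-down over input.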

Sequence	binding signal
GATGATTGTTCTCCCAGCTGATGAATTCAACGTTTCGAGTAAACAAATTTTCCTAATCTTTCTGTTCAAGCGCCATCTAC	0.889 RPM ratio (pull-down/input)
GATGATTGTTCTCCCAGCTGATGAATTACCTTTCTCGAGTAAACAAATTTTCCTAATCTTTCTGTTCAAGCGCCATCTAC	0.97 RPM ratio (pull-down/input)
GATGATTGTTCTCCCAGCTGATGAATTCGAGACATCGAGTAAACAAATTTTCCTAATCTTTCTGTTCAAGCGCCATCTAC	0.998 RPM ratio (pull-down/input)
GATGATTGTTCTCCCAGCTGATGAATTATCTTCGTCGAGTAAACAAATTTTCCTAATCTTTCTGTTCAAGCGCCATCTAC	0.914 RPM ratio (pull-down/input)
GATGATTGTTCTCCCAGCTGATGAATTTTTGGCGTCGAGTAAACAAATTTTCCTAATCTTTCTGTTCAAGCGCCATCTAC	0.913 RPM ratio (pull-down/input)
GATGATTGTTCTCCCAGCTGATGAATTCACTTACTCGAGTAAACAAATTTTCCTAATCTTTCTGTTCAAGCGCCATCTAC	0.874 RPM ratio (pull-down/input)
GATGATTGTTCTCCCAGCTGATGAATTCGGACCGTCGAGTAAACAAATTTTCCTAATCTTTCTGTTCAAGCGCCATCTAC	0.773 RPM ratio (pull-down/input)
GATGATTGTTCTCCCAGCTGATGAATTCGACGGGTCGAGTAAACAAATTTTCCTAATCTTTCTGTTCAAGCGCCATCTAC	0.761 RPM ratio (pull-down/input)
GATGATTGTTCTCCCAGCTGATGAATTCCACATTTCGAGTAAACAAATTTTCCTAATCTTTCTGTTCAAGCGCCATCTAC	0.944 RPM ratio (pull-down/input)
GATGATTGTTCTCCCAGCTGATGAATTTCAACCCTCGAGTAAACAAATTTTCCTAATCTTTCTGTTCAAGCGCCATCTAC	0.794 RPM ratio (pull-down/input)
GATGATTGTTCTCCCAGCTGATGAATTTGATCACTCGAGTAAACAAATTTTCCTAATCTTTCTGTTCAAGCGCCATCTAC	1.02 RPM ratio (pull-down/input)
GATGATTGTTCTCCCAGCTGATGAATTAGAGGTGTCGAGTAAACAAATTTTCCTAATCTTTCTGTTCAAGCGCCATCTAC	0.96 RPM ratio (pull-down/input)
GATGATTGTTCTCCCAGCTGATGAATTTTGACTTTCGAGTAAACAAATTTTCCTAATCTTTCTGTTCAAGCGCCATCTAC	0.911 RPM ratio (pull-down/input)
GATGATTGTTCTCCCAGCTGATGAATTTGAATAATCGAGTAAACAAATTTTCCTAATCTTTCTGTTCAAGCGCCATCTAC	1.18 RPM ratio (pull-down/input)
GATGATTGTTCTCCCAGCTGATGAATTAATAGCGTCGAGTAAACAAATTTTCCTAATCTTTCTGTTCAAGCGCCATCTAC	1.06 RPM ratio (pull-down/input)
GATGATTGTTCTCCCAGCTGATGAATTAGAACCGTCGAGTAAACAAATTTTCCTAATCTTTCTGTTCAAGCGCCATCTAC	0.868 RPM ratio (pull-down/input)
GATGATTGTTCTCCCAGCTGATGAATTTTCTACCTCGAGTAAACAAATTTTCCTAATCTTTCTGTTCAAGCGCCATCTAC	0.89 RPM ratio (pull-down/input)
GATGATTGTTCTCCCAGCTGATGAATTTATGTATTCGAGTAAACAAATTTTCCTAATCTTTCTGTTCAAGCGCCATCTAC	1.68 RPM ratio (pull-down/input)
GATGATTGTTCTCCCAGCTGATGAATTTTTAGTTTCGAGTAAACAAATTTTCCTAATCTTTCTGTTCAAGCGCCATCTAC	1.05 RPM ratio (pull-down/input)
GATGATTGTTCTCCCAGCTGATGAATTCGACCTCTCGAGTAAACAAATTTTCCTAATCTTTCTGTTCAAGCGCCATCTAC	0.698 RPM ratio (pull-down/input)
GATGATTGTTCTCCCAGCTGATGAATTTTGTCCGTCGAGTAAACAAATTTTCCTAATCTTTCTGTTCAAGCGCCATCTAC	0.953 RPM ratio (pull-down/input)

Sequence	binding signal
GATGATTGTTCTCCCAGCTGATGAATTTGAGTAGTCGAGTAAACAAATTTTCCTAATCTTTCTGTTCAAGCGCCATCTAC	0.875 RPM ratio (pull-down/input)
GATGATTGTTCTCCCAGCTGATGAATTATAGTGCTCGAGTAAACAAATTTTCCTAATCTTTCTGTTCAAGCGCCATCTAC	0.938 RPM ratio (pull-down/input)
GATGATTGTTCTCCCAGCTGATGAATTCAGGAACTCGAGTAAACAAATTTTCCTAATCTTTCTGTTCAAGCGCCATCTAC	0.855 RPM ratio (pull-down/input)
GATGATTGTTCTCCCAGCTGATGAATTCATATCATCGAGTAAACAAATTTTCCTAATCTTTCTGTTCAAGCGCCATCTAC	1.11 RPM ratio (pull-down/input)
GATGATTGTTCTCCCAGCTGATGAATTCCAAAGGTCGAGTAAACAAATTTTCCTAATCTTTCTGTTCAAGCGCCATCTAC	0.761 RPM ratio (pull-down/input)
GATGATTGTTCTCCCAGCTGATGAATTCATGATGTCGAGTAAACAAATTTTCCTAATCTTTCTGTTCAAGCGCCATCTAC	1.21 RPM ratio (pull-down/input)
GATGATTGTTCTCCCAGCTGATGAATTCTGGGTCTCGAGTAAACAAATTTTCCTAATCTTTCTGTTCAAGCGCCATCTAC	0.744 RPM ratio (pull-down/input)
GATGATTGTTCTCCCAGCTGATGAATTTCACTAATCGAGTAAACAAATTTTCCTAATCTTTCTGTTCAAGCGCCATCTAC	0.997 RPM ratio (pull-down/input)
GATGATTGTTCTCCCAGCTGATGAATTGATCCCATCGAGTAAACAAATTTTCCTAATCTTTCTGTTCAAGCGCCATCTAC	1.02 RPM ratio (pull-down/input)
GATGATTGTTCTCCCAGCTGATGAATTTTGCAATTCGAGTAAACAAATTTTCCTAATCTTTCTGTTCAAGCGCCATCTAC	1.13 RPM ratio (pull-down/input)
GATGATTGTTCTCCCAGCTGATGAATTTGACACCTCGAGTAAACAAATTTTCCTAATCTTTCTGTTCAAGCGCCATCTAC	0.871 RPM ratio (pull-down/input)
GATGATTGTTCTCCCAGCTGATGAATTAAGCAGGTCGAGTAAACAAATTTTCCTAATCTTTCTGTTCAAGCGCCATCTAC	0.832 RPM ratio (pull-down/input)
GATGATTGTTCTCCCAGCTGATGAATTGACGAGGTCGAGTAAACAAATTTTCCTAATCTTTCTGTTCAAGCGCCATCTAC	0.902 RPM ratio (pull-down/input)
GATGATTGTTCTCCCAGCTGATGAATTCTTGTATTCGAGTAAACAAATTTTCCTAATCTTTCTGTTCAAGCGCCATCTAC	1.72 RPM ratio (pull-down/input)
GATGATTGTTCTCCCAGCTGATGAATTAAACTAGTCGAGTAAACAAATTTTCCTAATCTTTCTGTTCAAGCGCCATCTAC	0.926 RPM ratio (pull-down/input)
GATGATTGTTCTCCCAGCTGATGAATTGACGACTTCGAGTAAACAAATTTTCCTAATCTTTCTGTTCAAGCGCCATCTAC	1.06 RPM ratio (pull-down/input)
GATGATTGTTCTCCCAGCTGATGAATTAAGAGTCTCGAGTAAACAAATTTTCCTAATCTTTCTGTTCAAGCGCCATCTAC	0.792 RPM ratio (pull-down/input)
GATGATTGTTCTCCCAGCTGATGAATTATATATATCGAGTAAACAAATTTTCCTAATCTTTCTGTTCAAGCGCCATCTAC	1.16 RPM ratio (pull-down/input)
GATGATTGTTCTCCCAGCTGATGAATTGCGTGAATCGAGTAAACAAATTTTCCTAATCTTTCTGTTCAAGCGCCATCTAC	1.15 RPM ratio (pull-down/input)
GATGATTGTTCTCCCAGCTGATGAATTAGTCTCCTCGAGTAAACAAATTTTCCTAATCTTTCTGTTCAAGCGCCATCTAC	0.847 RPM ratio (pull-down/input)
GATGATTGTTCTCCCAGCTGATGAATTAGAGAAATCGAGTAAACAAATTTTCCTAATCTTTCTGTTCAAGCGCCATCTAC	1.09 RPM ratio (pull-down/input)

Sequence	binding signal
GATGATTGTTCTCCCAGCTGATGAATTACACACATCGAGTAAACAAATTTTCCTAATCTTTCTGTTCAAGCGCCATCTAC	1.48 RPM ratio (pull-down/input)
GATGATTGTTCTCCCAGCTGATGAATTATATCGATCGAGTAAACAAATTTTCCTAATCTTTCTGTTCAAGCGCCATCTAC	0.956 RPM ratio (pull-down/input)
GATGATTGTTCTCCCAGCTGATGAATTCACCGACTCGAGTAAACAAATTTTCCTAATCTTTCTGTTCAAGCGCCATCTAC	0.825 RPM ratio (pull-down/input)
GATGATTGTTCTCCCAGCTGATGAATTGCGGTGGTCGAGTAAACAAATTTTCCTAATCTTTCTGTTCAAGCGCCATCTAC	0.882 RPM ratio (pull-down/input)
GATGATTGTTCTCCCAGCTGATGAATTCGCCGCGTCGAGTAAACAAATTTTCCTAATCTTTCTGTTCAAGCGCCATCTAC	0.875 RPM ratio (pull-down/input)
GATGATTGTTCTCCCAGCTGATGAATTACAGTAGTCGAGTAAACAAATTTTCCTAATCTTTCTGTTCAAGCGCCATCTAC	1.09 RPM ratio (pull-down/input)
GATGATTGTTCTCCCAGCTGATGAATTTCCTACCTCGAGTAAACAAATTTTCCTAATCTTTCTGTTCAAGCGCCATCTAC	0.823 RPM ratio (pull-down/input)
GATGATTGTTCTCCCAGCTGATGAATTTATCAGGTCGAGTAAACAAATTTTCCTAATCTTTCTGTTCAAGCGCCATCTAC	0.981 RPM ratio (pull-down/input)
GATGATTGTTCTCCCAGCTGATGAATTGTCGGTGTCGAGTAAACAAATTTTCCTAATCTTTCTGTTCAAGCGCCATCTAC	1.04 RPM ratio (pull-down/input)
GATGATTGTTCTCCCAGCTGATGAATTCCCATGTTCGAGTAAACAAATTTTCCTAATCTTTCTGTTCAAGCGCCATCTAC	0.835 RPM ratio (pull-down/input)
GATGATTGTTCTCCCAGCTGATGAATTGCGTAGATCGAGTAAACAAATTTTCCTAATCTTTCTGTTCAAGCGCCATCTAC	1.09 RPM ratio (pull-down/input)
GATGATTGTTCTCCCAGCTGATGAATTTTGTTCCTCGAGTAAACAAATTTTCCTAATCTTTCTGTTCAAGCGCCATCTAC	0.981 RPM ratio (pull-down/input)
GATGATTGTTCTCCCAGCTGATGAATTCTCACTGTCGAGTAAACAAATTTTCCTAATCTTTCTGTTCAAGCGCCATCTAC	0.801 RPM ratio (pull-down/input)
GATGATTGTTCTCCCAGCTGATGAATTTAGATAATCGAGTAAACAAATTTTCCTAATCTTTCTGTTCAAGCGCCATCTAC	1.4 RPM ratio (pull-down/input)
GATGATTGTTCTCCCAGCTGATGAATTCTACTGCTCGAGTAAACAAATTTTCCTAATCTTTCTGTTCAAGCGCCATCTAC	0.819 RPM ratio (pull-down/input)
GATGATTGTTCTCCCAGCTGATGAATTTTCACTTTCGAGTAAACAAATTTTCCTAATCTTTCTGTTCAAGCGCCATCTAC	0.998 RPM ratio (pull-down/input)
GATGATTGTTCTCCCAGCTGATGAATTGCCGCGGTCGAGTAAACAAATTTTCCTAATCTTTCTGTTCAAGCGCCATCTAC	0.878 RPM ratio (pull-down/input)
GATGATTGTTCTCCCAGCTGATGAATTCGGGGACTCGAGTAAACAAATTTTCCTAATCTTTCTGTTCAAGCGCCATCTAC	0.792 RPM ratio (pull-down/input)
GATGATTGTTCTCCCAGCTGATGAATTTAACTAGTCGAGTAAACAAATTTTCCTAATCTTTCTGTTCAAGCGCCATCTAC	0.88 RPM ratio (pull-down/input)
GATGATTGTTCTCCCAGCTGATGAATTTTTGGACTCGAGTAAACAAATTTTCCTAATCTTTCTGTTCAAGCGCCATCTAC	0.873 RPM ratio (pull-down/input)
GATGATTGTTCTCCCAGCTGATGAATTGTGCCGCTCGAGTAAACAAATTTTCCTAATCTTTCTGTTCAAGCGCCATCTAC	0.979 RPM ratio (pull-down/input)
